PubChem BioAssay AID686978 (National Center for Advancing Translational Sciences (NCATS), 2013)
Where “and” joins values, the source holds several entries; their conditions need not be identical. Equal values may be shown once. About 64,000 (15%) of roughly 420,000 compounds were called active. The shares of active, inactive and inconclusive entries below differ from those in the screen. Calls follow the shape of the dose curve; as a rule, active = well fitted inhibition curve with a large enough effect; inconclusive = small, poorly fitted or top-dose-only effect; inactive = flat fitted curve, though single readings scatter. No potency is given beside an inconclusive call; the fits are too rough.

Assay: qHTS for Inhibitors of human tyrosyl-DNA phosphodiesterase 1 (TDP1): qHTS in cells in absence of CPT; also: nearly all actives have a fitted effect of over 55% in size
Conditions: DT40 Tdp1-/- hTDP1 cells, no CPT, ATP luminescence, 48 h; activity change, negative = growth inhibition: at 46.2 µM (top of the series) unless noted
In short: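 Readout: luminescence from CellTiter-Glo after 30 min in the dark at RT. Cells: DT40 Tdp1-/- with stable hTDP1, 400/well. Exposure: compounds alone, ≥48 hr, 37 °C.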
% is scaled to controls: 0 for no effect and ±100 for the full control effect; potency is read from the fitted curve at half-maximal effect; tags tell the direction and shape of the fitted curve.

Structure (SMILES)	Potency	activity change, negative = growth inhibition
CC(C)(C)c1ccc(C(=O)C2CCCN(C3CCC3)C2)cc1 (stereo not given)	inconclusive [inhibitor, partial curve, poor fit]	
CN1CCN(c2ncnc3ccc(Br)cc23)CC1	inconclusive [inhibitor, partial curve]	
Fc1ccc(-c2nc3c(-c4ccc(F)cc4)cnn3cc2CCN2CCOCC2)cc1	inconclusive [inhibitor, single point]	
CCC(C)/C=C(C)/C=C/C1=CC2=C(Cl)C(=O)C(C)(OC(C)=O)C(=O)C2=CO1 (stereo not given)	inconclusive [inhibitor, single point]	
COc1ccc(OCC(=O)N2CCN(Cc3cccc(OC)c3OC)CC2)cc1	inconclusive [inhibitor, single point]	
O=[N+]([O-])c1cc(F)c(N2CCCCCC2)cc1N1CCNCC1	inconclusive [inhibitor, partial curve, poor fit]	
CN1CCN(c2ccc([N+](=O)[O-])cc2Cl)CC1	inconclusive [inhibitor, single point]	
c1ccc2c(CCNC3=NCCC3)c[nH]c2c1		inactive: -19.6%
O=C(CCCCCCCCC#CI)Oc1ccccc1	inconclusive [inhibitor, partial curve]	
COc1cccc(N2CCN(Cc3ccc(Cl)cc3)CC2)c1		inactive: -21%
CN1CC[C@@]2(CCCN(C(=O)c3ccncc3)C2)C1		inactive: -14.6%
C[C@@]12CCC(=O)C[C@@H]1CC[C@@H]1[C@@H]2CC[C@]2(C)C(=O)CC[C@@H]12	inconclusive [inhibitor, single point]	
CCOC(=O)c1ccc(COC(=O)c2ccc(-c3nnc(-c4ccccc4)o3)cc2)o1	inconclusive [inhibitor, partial curve, poor fit]	
Cc1cc([N+](=O)[O-])c2ccccc2[n+]1[O-]	active: 0.0517 µM	
CCCCn1c(=O)c(C(=O)NCc2ccc(Cl)cc2)c(O)c2ccccc21	inconclusive [inhibitor, single point]	
O=C(CCC(=O)N1CC2C[C@@H](C1)Cn1c2cccc1=O)NCCc1ccccc1F		inactive: -4.06%
COc1ccc(C(C)=O)cc1CC(C(=O)c1ccc(C)c(C)c1)N(C)C (stereo not given)		inactive: -20.3%
C=C(COC(C)=O)CC1CC(O)[C@]2(C)OC3CC4OC5C[C@]6(C)O[C@]7(C)CCC8OC9C[C@]%10(C)OC%11C(C)=CC(=O)OC%11CC%10OC9C[C@@H](C)C8OC7CC6O[C@]5(C)C/C=C\C4OC3CC2O1 (stereo not given in full)	inconclusive [inhibitor, single point]	
CCOC(=O)c1ccc(NC(=O)c2sc3nc4c(cc3c2N)N2CCC4CC2)cc1	inconclusive [inhibitor, partial curve]	
CCOC(=O)CNC(=S)N1CC2C[C@@H](C1)Cn1c2cccc1=O		inactive: 17.6%
Clc1ccc(C(Cl)(Cl)Cl)c(Cl)c1	inconclusive [inhibitor, partial curve]	
CN(C)CC/C=C1/c2ccccc2Sc2ccc(Cl)cc21	active: 29.1 µM	
O=C1NCN(c2ccccc2)C12CCN(C(c1cccc3ccccc13)c1nnnn1C1CCCC1)CC2 (stereo not given)	active: 16.4 µM	

Structure (SMILES)	Potency	activity change, negative = growth inhibition
Cc1cc(C)cc(N2C(=O)/C(=C\c3ccc(N4CCN(C)CC4)o3)C(=O)NC2=S)c1	inconclusive [inhibitor, single point]	
Cc1cccc(-n2c(O)c(C=Nc3ccc(S(N)(=O)=O)cc3)c(=O)[nH]c2=O)c1		inactive: 0.0481%
CC1(C)OC1COc1c2occc2cc2ccc(=O)oc12 (stereo not given)	inconclusive [inhibitor, single point]	
CC(=O)[C@H]1CC[C@H]2[C@@H]3CCC4=CC(=O)CC[C@]4(C)[C@H]3CC[C@]12C	active: 20.6 µM [middle of 5 runs]	
CO[C@H]1[C@@H](OC)CC(OC2OC(CO)C(O)C(O)C2O)/C(=C\C#N)[C@@H]1O (stereo not given in full)		inactive: -2.8%
O=C(c1ccc(Cl)cc1)c1cn(Cc2ccccc2)c2cc3c(cc2c1=O)OCCO3	active: 23.1 µM	
COCCCN1CCN(c2nnc3n2-c2sc(Br)cc2C(c2ccccc2Cl)=NC3)CC1	inconclusive [inhibitor, single point]	
COc1cccc(C(c2nnnn2-c2c(C)cccc2C)N2CCC(n3c(=O)[nH]c4ccccc43)CC2)c1OC (stereo not given)	active: 5.8 µM	
CCOc1ccccc1N1CCN(Cc2cccc(OC)c2OC)CC1	inconclusive [inhibitor, single point]	
Cn1cccc1/C=C1\C(=O)NC(=O)N(Cc2ccccc2Cl)C1=O	active: 4.61 µM	
O=C1c2ccccc2C(=O)c2c1ccc1c(=O)n(-c3ccccc3)[nH]c21	active: 23.1 µM	
Cc1ccc(NP(=O)(c2ccccc2)c2nc3ccccc3s2)cc1 (stereo not given)	inconclusive [inhibitor, single point]	
O=C(c1ccco1)N1CCC[C@@]2(CCN(Cc3ccncc3)C2)C1		inactive: -12.8%
CCCCCCCCN1C(=O)[C@H](CC(=O)NCCc2ccccc2OC)C[C@@]2(C(=O)OC)CCCCC=C12	inconclusive [inhibitor, single point]	
O=[N+]([O-])c1ccc(N2CCCCC2)c2ncccc12		inconclusive: -35.3% [inhibitor]
c1coc(CNCCc2c[nH]c3ccccc23)c1		inactive: -22.7%
COC(=O)C1=C(c2ccc(-c3ccccc3)c(F)c2)C[C@@H]2CC[C@H]1N2C(=O)NCCO	active: 20.6 µM	
CC(C)c1ccc(O)c(CN2CCN(c3ccccc3)CC2)c1	inconclusive [inhibitor, partial curve, poor fit]	
CC1CCCC(NC(=O)COC(=O)Cc2ccccc2)C1C (stereo not given)		inactive: -9.03%
O=c1c2ccccc2nc(Cc2cccc([N+](=O)[O-])c2)n1-c1ccc(O)cc1	inconclusive [inhibitor, single point]	
CCCC(=O)NC(Oc1ccc(Cl)cc1Cl)C(Cl)(Cl)Cl (stereo not given)		inactive: -16.2%
CC[C@@]1(O)C(=O)OCc2c1cc1n(c2=O)Cc2cc3ccccc3nc2-1	active: 37.6 nM and active: 89.1 nM	
